Here are results for 84 variants from the RNAGym collection of RNA variant scans (doi:10.1093/nar/gkz1192).

To fix the notation:
B1: CPEB3 Ribozyme (parent)
chain: UAACAGGGGGCCACAGCAGAAGCGUUCACGUCGCAGCCCCUGUCAGAUUCUGGUGAAUCUGCGAAUUCUGCUGUAUAUCUC

Read counts are not given, so values of variants with three or more changes are uncertain.

This data set covers variants of B1. Put plainly: self-cleavage, relative activity (ratio to wild type); higher = more cleavage; in vitro, sequencing. In outline: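 Libraries of CPEB3 self-cleaving ribozyme mutants came from rounds of error-prone PCR and carried barcodes, which DNA sequencing matched to variants. In vitro transcription used T7 RNA polymerase at 37°C for 5 hours, with a further 15 min in DNase I before EDTA stopped the reaction; the ribozymes cleaved during both steps. The RNA was reverse transcribed with template switching and sequenced on Illumina. Relative activity is the cleaved/total read fraction of a variant divided by that of the unmutated ribozyme, averaged over three batches with at least 5 reads.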
As to A3U A18G G24A U26C U54C A56G, the self-cleavage was 0.17. Consider A3G U31C U43C U66G U78A, for which the self-cleavage was 0.44. As for A3U C37G U67C, the figure is 0.13. Regarding A3U U25C C32U U43C U69A, the self-cleavage turned out to be 0.03. For the variant A3U U43A A57G U72A, the self-cleavage is 0.66. Consider A3G U41C G55C U72A A77U, for which the self-cleavage was 0.69. As for C4U C29U C34G, the figure is 0.17; as for C4U G7U A35G U43C U51C U58C, 0.22. As for A3U C32U U51C A57G A64G, the figure is 0.07; as for A3G U26C A28U A35U U41A U54C, 0.26. Under A3G U31C G70A stands 0.4; under C4A C11U A20U U25C C32A C62A U72A, 0.05; under C4A U51C U60C, 0.63. Regarding A3U U25A U31A, the self-cleavage was found to be 0.31. Under C4U A21G A45C A64G stands 0.16; under C4A G36U A45G U49C A65U, 0.12; under A3U A47G C71U, 0.44.

For the variant A3G U25C U80C, the self-cleavage came to 0.22. With A3U A13G A65G U69A, the self-cleavage stood at 0.3.

On to A3G U26A A45G U49C, for which the self-cleavage is 0.13. Under A3G U26C C29U U60A A64G U67C stands 0.04; under A3G U43C A56U A57C G63A A65G U69A, 0.08; under A3U G16A A20U G42U, 0.05. As for C4U A13U G19C, the figure is 0.47; as for C4U C23U C38A U41A U51C, 0.14. As for A3G U31C C39G U67C, the figure is 0.26; as for A3U C23U A28C, 0.4; as for A5C A15C A18G A28U A35G U60C, 0.34.

Consider A3U A15G C50G, for which the self-cleavage was 0.64.

Regarding C4A A13G C17G U51A, the self-cleavage stood at 0.59. Consider A5C A15G A47G, for which the self-cleavage was 1.14. With C4G U41C U43C, the self-cleavage stood at 0.64. Under C4A G33U A57G stands 0.15; under A3U A20C A21C U31C U49C, 0.07. Under C4U A28U U67C stands 0.47; under A3G U31C U69C, 0.3; under A3G U41A U58A C62U, 0.19. As for C4U U25A U41C U80C, the figure is 0.18; as for C4U U69A U72A, 0.32. With A3U A18U U54A G63A U76C, the self-cleavage was determined as 0.49. As for A3U G10U U41A A57G, the figure is 0.06; as for C4G A56G A64G, 1.05. Under A3G U26C C38A U54C A57U G61A stands 0.34; under A3U G8A G10A C11G C34G U80A, 0.02; under A3G U26C A35G U43A A77U, 0.3. As for A3U A13G A18G A35G C40A A57G, the figure is 0.37. Take A3U G9A G30A U43A U72A A77G: the self-cleavage was found to be 0.05.

For the variant A3U U49A U67C, the self-cleavage turned out to be 0.29. As for A3G U25C U41C U74C U80C, the figure is 0.16. Turning to A3G U43A A45G U69C, the self-cleavage came out at 0.36.

As to A3G U60A U78A, the self-cleavage was determined as 0.7. As for A3U G6U A18G U43A, the figure is 0.1; as for A3U U26A U31C U49C, 0.19. As for A3G U26A U51C U69C, the figure is 0.22; as for C4U A5U U58C C71U, 0.57; as for A3U A13U G42A U72C, 0.26. Under A3G U26C U48C G55A U66C stands 0.11; under C4U A13G A57G, 0.79. On to A3U A35C U41C G55C U72G, for which the self-cleavage stood at 0.54. As for A3U C32A A57G U72A, the figure is 0.16; as for C4U U25C A45U A56G U67C, 0.1; as for A3U A5U C38U C68A, 0.46. For the variant A3U A57G U80A, the self-cleavage amounted to 1.2. With A3U G9A A15G U67A, the self-cleavage was 0.09. A3U U41C A64G: the self-cleavage turned out to be 0.89.

Turning to C4A C29U U41C U54C U60C, the self-cleavage was 0.2. Regarding A3U C32U A35U U54C U60C U72A U74C, the self-cleavage worked out at 0.08. A3G U26C G42A U51A U67A: the self-cleavage was 0.47.

Consider A3U U60G U72A U78A, for which the self-cleavage was determined as 0.32. As for A3U C40U U43A U58C U69C, the figure is 0.32; as for C4U G8U A18G U69C, 0.07; as for A3U U31C C34U U48C U78C, 0. Under A3G U31C A57G stands 0.96; under C4A A13G A15G U66C, 0.06. Under A3U C4A A47G U54A stands 1.18. In the case of A3U G7U A35C U51C U58C, the self-cleavage was determined as 0.32. Under A3G U43C U60C U72C stands 0.09. On to A3U U31A A56G U69A, for which the self-cleavage worked out at 0.46. Under A3U U48C U69C U72C stands 0.28; under A3U G42A A47G U48A U72C U78C, 0.07; under C4U C27U A56U U72C U80A, 0.18. Turning to C4U U31C A45G, the self-cleavage worked out at 0.65.

For the variant A3U A15C A20G U25C A64G, the self-cleavage stood at 0.09. Consider A3G U41A U48A A64G A65G, for which the self-cleavage turned out to be 0.07.
